The whole screen tested about 150,000 compounds, of which about 540 (0.36%) showed an effect of 50% or more. Some of the results follow.
system: Plasmodium falciparum; experiment: Primary screen in NF54 nanoGlo assay, in single point, at 2uM, 72h; a lower Z score goes with more inhibition; format: functional, Erythrocyte; conditions: timepoint 72 hour

| Structure (SMILES) | % Inhibition | Z score |
| --- | --- | --- |
| CN(Cc1cnn2cccnc12)CC1(N2CCOCC2)CCCCC1 | -7% | 1.3 |
| Cc1nn(CCCNC(=O)[C@H](O)c2cccc(Cl)c2)c(C)c1C | -13% | 1.25 |
| COCCC1(NS(=O)(=O)c2ccccc2)CCN(CC2CC2)CC1 | 5% | -0.68 |
| C=C(C)CC(C)C(=O)NCC1CCc2cccnc21 (stereo unspecified) | -4% | 0.51 |
| Cc1nccc(C(=O)Nc2ccc(-n3cncn3)cn2)n1 | 0% | -0.04 |
| CCC(C)NC(=O)c1coc(CN(Cc2ccc(C)cc2C)C(C)C(C)C)n1 (stereo unspecified) | -12% | 1.36 |
| COc1ccc(CN2CCC(N3CCOCC3)CC2)cn1 | -17% | 1.72 |
| Cc1nc(C)c(S(=O)(=O)NC2CC(C)N(c3ccccc3)C2=O)s1 (stereo unspecified) | -8% | 1.63 |
| Cc1c(N[C@@H](C)c2cc(Cl)ccc2O)c(=O)n(-c2ccccc2)n1C | 9% | -1.13 |
| CCCc1nnc2c(=O)n(CC(=O)Nc3ccc(C)c(C)c3)c3ccccc3n12 | -13% | 1.46 |
| COc1cccc2cc(-c3ccnc(N)n3)oc12 | -1% | 0.07 |
| C[C@H]1COc2ccccc2N1CCn1cncn1 | -7% | 1.02 |
| O=C(c1ccc(C(=O)N2CCN(c3ccccc3F)CC2)nc1)N1CCN(c2ccccc2F)CC1 | -3% | 0.41 |
| O=C(COc1ccccc1)N1CC[C@H](c2nc(C3CCOCC3)no2)C1 | 33% | -0.96 |
| Cc1ccc(C(=O)NCc2ccccn2)cc1S(=O)(=O)N1CCN(C)CC1 | 14% | -1.99 |
| CCO[C@H]1COCC[C@@H]1NC(=O)c1cccc(-n2cnnc2)n1 | -13% | 1.64 |
| N#Cc1ccc(OCc2noc(-c3cccs3)n2)cc1 | 9% | -1.07 |
| COc1cccc2c1O[C@@H](C)C(=O)N(C1CC1)C2 | -11% | 1.24 |
| COc1ccsc1S(=O)(=O)N1CCN(c2ncns2)CC1 | -5% | 0.57 |
| O=c1cc(-c2ccccc2)n2c(nc3ccccc32)[nH]1 | 22% | -2.5 |
| CCOC(=O)c1cccc(N2C(=O)Cn3cccc3C2C(=O)NC2CCCCC2C)c1 (stereo unspecified) | -16% | 2.06 |

| Structure (SMILES) | % Inhibition | Z score |
| --- | --- | --- |
| COc1ccc2c(c1)N(C(=O)c1cccnc1)CCCC2 | -7% | 1.3 |
| CC1CN(C(=O)c2ccc3c(c2)OCO3)OC(c2cccnc2)O1 (stereo unspecified) | 4% | -0.47 |
| CS(=O)(=O)N1CC[C@@]2(CCCN(CCc3ccccc3)C2)C1 | -1% | 0.09 |
| Cn1c(CN2CCCC2)nnc1C1CCN(S(=O)(=O)C2CC2)CC1 | 4% | -0.58 |
| CS(=O)(=O)c1ccc(CN2C[C@@H]3C[C@H]2C(=O)NC[C@H]2O[C@H](CCOc4cc(-c5ccccc5)ccc4C(=O)N3)CC[C@@H]2O)cc1 | -2% | 0.26 |
| C[C@@H](CCNC(=O)N1CCN(c2ccc3nccn3n2)CC1)n1ccnc1 | -9% | 1.01 |
| CC1CN(c2nc3ccccc3nc2C(C#N)S(=O)(=O)c2cccc(Cl)c2)CC(C)O1 (stereo unspecified) | 31% | -3.53 |
| CCn1ccnc1-c1nccn1-c1ccc(NS(C)(=O)=O)c(OC)c1 | -11% | 1.67 |
| Cn1ccnc1CN(Cc1cc(=O)n2c3c(cccc13)CCC2)C1CC1 | 6% | -1.15 |
| O=C(N[C@H]1CCO[C@@H]1c1cncc(Br)c1)C1CC1C1CC1 (stereo partly specified) | -8% | 1.22 |
| COC[C@H]1CCCCN1Cc1cn(-c2ccccc2)nc1-c1ccc2c(c1)OCO2 | -1% | 0.15 |
| Cn1cc(S(=O)(=O)NCc2nnc3n2CCCCC3)cn1 | -1% | 0.06 |
| Cc1ncnc(N2CCN(C(=O)C[C@H](C)n3ccnc3C)CC2)c1C | -1% | 0.11 |
| CC1CC(C)CN(C(=O)CN(CCO)Cc2ccsc2)C1 (stereo unspecified) | -7% | 1.07 |
| Cc1cc(C)cc(CN(Cc2ccccc2)[C@@]2(CO)CCOC2)c1 | 9% | -1.57 |
| COc1cc(CN(C)Cc2c(C)noc2C)ccc1OC[C@@H](O)CN1CCCC1 | 4% | -0.58 |
| Cc1ccc(-n2ccnc2)c(C(=O)N2CCS(=O)(=O)C(C)C2C)c1 (stereo unspecified) | -18% | 1.5 |
| CN(C)C(=O)N(CCN1CCCCC1)[C@H]1CCN(C(=O)Cc2ccc(F)cc2)C1 | -5% | 0.73 |
| CO[C@H]1CCCN(C(=O)CCN2CCCCC2=O)C1 | -6% | 0.84 |
| CC(C)CCOc1ccc(CN(CC(C)(C)N(C)C)S(=O)(=O)c2cccnc2)cc1 | -1% | 0.11 |
| CN(C1CCCCC1O)S(=O)(=O)c1ccc(N2CCCC2=O)cc1 (stereo unspecified) | 9% | -1.68 |

| Structure (SMILES) | % Inhibition | Z score |
| --- | --- | --- |
| CC1(C(=O)N2CCCC(CN3CCOCC3)C2)CC1(Cl)Cl (stereo unspecified) | -13% | 1.37 |
| O=C(COC(=O)c1cnc(O)nc1O)Nc1ccccc1F | -8% | 1.55 |
| CNS(=O)(=O)C1CCN(C(=O)NC2CCC2)CC1 | -8% | 1.25 |
| CCCc1ncncc1C(=O)N1CC[C@@](O)(C2CCOCC2)[C@H](C)C1 | 2% | -0.27 |
| CCC[C@H]1C(=O)NCCN1c1nc(C)nc2c1cnn2C | 13% | -1.72 |
| CC(C)c1nnc(NC(=O)c2cnc3ccccc3n2)s1 | -12% | 1.55 |
| CC(C)CN(CC(F)(F)F)C(=O)CNc1ccc2c(c1)C(=O)NC2 | -8% | 1 |
| O=C(CCOc1ccccc1)N1C[C@@H](CN2CCOCC2)C[C@H](CO)C1 | -11% | 1.39 |
| COc1ccc(C(=O)N[C@H]2CO[C@H]3[C@@H]2OC[C@@H]3n2nnnc2Oc2ccc3c(c2)OCO3)cc1 | 12% | -1.34 |
| CC(C)C1CCC(NC(=O)N(C)C2CCC(CO)CC2)CC1 (stereo unspecified) | -5% | 0.75 |
| CCC(CC)CN1CC2(CCN(Cc3cnn(C)c3C)CC2)OC1=O | -9% | 1.72 |
| O=C(N[C@@H]1COCC[C@@H]1Oc1cccc(F)c1)c1cnccn1 | 6% | -0.59 |
| O=C(c1ccc(Cl)s1)N1CCN(c2ncc(F)cn2)C(=O)C1 | 19% | -2.35 |
| CCCCN(C)C(=O)Cc1c(C(=O)O)c(C)cn1CC | -7% | 0.93 |
| Cc1ccc(C)c(NS(=O)(=O)c2cc(C(=O)NC3CC3)ccc2Cl)c1 | -48% | 5.69 |
| C=CCn1ncc2c(=O)[nH]c(N3CCC[C@H](n4ccnc4C)C3)nc21 | 2% | -0.4 |
| O=C(C1COCCN1)N1CCCC(CN2CCN(c3ccccn3)CC2)C1 (stereo unspecified) | 12% | -1.73 |
| O=C(O)c1csc(-c2csc(CCN3C(=O)c4ccccc4C3=O)n2)n1 | 36% | -4.1 |
| CC1CN(S(=O)(=O)c2cccc3nonc23)CC(C)O1 (stereo unspecified) | -13% | 2.54 |
| O=C(Cn1c(=O)n(CC2CCC(C(=O)NCCc3ccccc3)CC2)c(=O)c2ccccc21)Nc1ccccc1 (stereo unspecified) | 2% | -0.31 |
| COCCN(Cc1c(C(C)C)nn(-c2ccccc2)c1Oc1ccccc1F)C(=O)C1CCC1 | 0% | -0.05 |

| Structure (SMILES) | % Inhibition | Z score |
| --- | --- | --- |
| Cn1c(=O)n([C@H]2CCCN(C(=O)NC3CCCCC3)C2)c2ncccc21 | -2% | 0.39 |
| C[C@@H](C(=O)NCC(=O)C1CC1)n1nnnc1C(C)(C)C | -13% | 1.1 |
| Cc1cc(Cl)c2ccccc2c1NC(=O)C1CCOCC1 | -13% | 1.98 |
| C[C@H](NC(=O)COc1ccc(-c2ncccn2)cc1CN(C)C)c1ccco1 | -7% | 0.77 |
| Cc1cccc(NC(=O)NCCCNC(=O)C2CCC2)c1Cl | -18% | 3.45 |
| Cc1c(NC(=O)N[C@H]2CCCC23CCOCC3)cccc1N(C)C | -2% | 0.27 |
| CC(=O)N[C@H]1C[C@H]2CN(Cc3ccc(F)cc3Cl)[C@@H](C)C(=O)N2C1 | -23% | 2.06 |
| CC1(C)CN(CCCC#N)c2cccc(Cl)c21 | -4% | 0.51 |
| Cc1nc(-n2cnnc2)ccc1-c1ccc(C(=O)N2CC[C@@H](O)C2)cc1 | -10% | 1.72 |
| Cc1cc(CC(=O)N(Cc2cc(F)ccc2F)C2CCCC2)no1 | 2% | -0.37 |
| Cc1nc(C2CCCN2CC(O)Cn2cccn2)[nH]c1C (stereo unspecified) | -3% | 0.55 |
| Cc1c(Cl)cccc1N1C(=O)CN(S(=O)(=O)c2ccccc2)C[C@@]1(C)C(=O)NCCC(C)C | 3% | -0.33 |
| CCC(C)(C)C(=O)N1CCN(c2ncccc2NC(=O)c2ccc3c(c2)OCO3)CC1 | 3% | -0.44 |
| CC(NC(=O)Nc1cc(C2CCCOC2)nn1C)c1ccc(F)cc1F (stereo unspecified) | 15% | -1.88 |
| O=C(N[C@H]1CCCc2c(O)cccc21)c1cnc2ccccc2n1 | -5% | 0.68 |
| CNC(=O)[C@H]1CCN(C(=O)c2coc(-c3ccccc3Cl)n2)C1 | -3% | 0.39 |
| Cc1ccc2nc3c(N(C)C)[nH]cnc-3c2c1 | -6% | 1.11 |
| O=C1NC[C@H]2CN(Cc3ccc(OC(F)(F)F)cc3)CCN12 | 19% | -2.25 |
| COc1ccc(-c2ncc(Cl)cn2)c(OC)n1 | 1% | -0.14 |
| COc1cc(CN2CCOC(C)(C)C2)ccc1OC[C@@H](O)CN1CCCC1 | -6% | 0.91 |

Source: ChEMBL document CHEMBL4888484, “Replenishing the malaria drug discovery pipeline: Screening and hit evaluation of the MMV Hit Generation Library 1 (HGL1) against asexual blood stage Plasmodium falciparum ,using a nano luciferase reporter read-out” (2022)
